Reference: patent US20240043504A1
“And” between values parts separate entries of the source, which are not always exact repeats. Equal values may be shown once.

B1: mAb10913 (antibody)
heavy: EVQLVESGGGLVQPGGSLRLSCAASGFTFRNYEMNWVRQAPGKGLEWVSYITSSGSTMYYADSVKGRFTISRDNAKNSLYLQMNSLRAEDTAVYYCARDGFYYYYAMDVWGQGTTVTVSS[human IgG1 constant region left out]
light: QSVLTQPPSVSAAPGQKVTISCSGSSSNIGNNYVSWYQQLPGTAPKLLIYDNNKRPSGIPDRFSGSKSGTSATLGITGLQTGDEADYYCGTWDSSLSVGRVFGTGTKVTVLGQPKAAPSVTLFPPSSEELQANKATLVCLISDFYPGAVTVAWKADSSPVKAGVETTTPSKQSNNKYAASSYLSLTPEQWKSHRSYSCQVTHEGSTVEKTVAPTECS
B2: mAb10914 (antibody)
heavy: EVQLVESGGGLVQPGGSLRLSCAASGLIVSRNYMIWVRQAPGKGLEWVSVIYSGGSTFYADSVKGRFTISRHNSKNTLYLQMNSLRAEDTAVYYCARDLGTGGMDVWGQGTTVTVSS[human IgG1 constant region left out]
light: DIQLTQSPSFLSASVGDRVTITCWASQGISSYLAWYQQKPGKAPKLLIYAASTLQSGVPSRFSGSGSGTEFTLTISSLQPEDFATYYCQQLNSYPLTFGGGTKVEIKRTVAAPSVFIFPPSDEQLKSGTASVVCLLNNFYPREAKVQWKVDNALQSGNSQESVTEQDSKDSTYSLSSTLTLSKADYEKHKVYACEVTHQGLSSPVTKSFNRGEC
B3: mAb10957 (antibody)
heavy: EVQLVESGGGLVQPGGSLRLSCAASGVTVSSNYMSWVRQAPGKGLEWVSVIYSGGSTFYADSVKGRFTISRDNSKNTLFLQMNSLRIEDTAVYYCARDLGPYGMDVWGQGTTVTVSS[human IgG1 constant region left out]
light: DIQLTQSPSFLSASVGDRVTITCRASQGISSYLAWYQQKPGKAPKLLIYAASTLQSGVPSRFSGSGSGTQFILTISSLQPEDFATYYCQQLNSYPGFTFGPGTKVDIKRTVAAPSVFIFPPSDEQLKSGTASVVCLLNNFYPREAKVQWKVDNALQSGNSQESVTEQDSKDSTYSLSSTLTLSKADYEKHKVYACEVTHQGLSSPVTKSFNRGEC

Target: SARS-CoV-2 Spike Protein (RBD)(R319-F541).mmH (SARS-CoV-2)
Experiment: Luminex, supernatant
Details: remark: other sources report otherwise

| Binder | MFI |
| --- | --- |
| B1 | 30700 MFI and 29200 MFI |
| B2 | 32000 MFI and 29600 MFI |
| B3 | 23400 MFI and 20600 MFI |
